# In PubChem BioAssay (Tox21):
# Values joined by “and” are separate entries in the source; they are usually repeats but may differ in a detail not shown here. Equal values may be shown once. Inconclusive means that the source gave no clear call. Such entries were picked first, then a sample of the others. For some assays here: A potency beside an inconclusive call is a rough fit, not a confirmed value. Some compounds were tested as several samples or in several runs, with calls that do not always agree. Active and inactive are the calls of the source. Unless noted, calls follow the shape of the dose curve; as a rule, active = well fitted curve in the direction sought with a large enough effect in the repeat runs; inconclusive = weak or mixed curves; inactive = no such curve, though single readings can be large; an effect the other way counts as inactive or inconclusive.
# Key:
# [1] = qHTS RealTime-Glo MT Cell Viability Assay in HEK293 cells - 24 hour (AID 1224886); also: nearly all actives have a fitted effect of over 50% in size; also: potency is read from the fitted curve at half-maximal effect
# How it was run: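 Luminescence generated by NanoLuc from substrate produced by living HEK293 cells served as the viability signal. Each value reflects the reading at its stated time point during continuous 40 h compound exposure at 37 C.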
# [2] = qHTS assay to identify small molecule HDAC inhibitors (AID 1259364);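 also: wild-type HCT-116 cells with endogenous class I/II HDAC activity; potency is read from the fitted curve at half-maximal effect; nearly all actives have a fitted effect of over 45% in size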
# How it was run: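 After a 2 hr compound incubation (37C, 5% CO2), HCT-116 cells seeded at 1,500/well the day before received HDAC-Glo reagent; signal read as luminescence after 30 min at room temperature.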
# [3] = qHTS assay to identify small molecule agonists of the sonic hedgehog signaling (Shh) pathway - cell viability counter screen (AID 1259366); also: nearly all actives have a fitted effect of over 50% in size; also: potency is read from the fitted curve at half-maximal effect
# How it was run: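 Cytotoxicity counter screen: CellTiter-Fluor reagent added after 23 h compound exposure, then 1 h at 37C and fluorescence read. Cells were 3T3 Gli1-Luc, seeded 2,000 per well and dosed 4 h post-plating.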
# [4] = qHTS assay to identify small molecule antagonists of the sonic hedgehog signaling (Shh) pathway (AID 1259369; calls by dose curve; also: potency is read from the fitted curve at half-maximal effect; nearly all actives have a fitted effect of over 45% in size)
# How it was run: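 Gli1 transcriptional reporter (firefly Luc) in NIH/3T3 background, conditioned-medium activated. 24hr exposure, luminescence endpoint.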
# [5] = biological target: Estrogen receptor beta (Homo sapiens) (UniProt Q92731); test: qHTS assay to identify small molecule antagonists of the estrogen receptor beta (ER-beta) signaling pathway (AID 1259378; active = well fitted inhibition curve with a large enough effect in the signal ratio in the repeat runs, not every such curve was filed as active; inconclusive = weak or mixed curves, or effect the other way; inactive = no such curve, though single readings can be large or run the other way; the % refers to the signal ratio; also: potency is read from the fitted curve at half-maximal effect; as to activity, negative = inhibition: % is scaled to controls: 0 for no effect and ±100 for the full control effect); details: ER-beta-UAS-bla HEK293T, beta-lactamase FRET ratio, 16 h
# How it was run: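 ER-beta-UAS-bla HEK293T cells in 2% charcoal-stripped FBS medium treated with compound plus 1nM final 17-beta-estradiol for 16 hr at 37C. Beta-lactamase reporter read by FRET substrate fluorescence after 2 hours at room temperature.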
# [6] = qHTS assay to identify small molecule phospholipidosis (PLD) inducers (AID 1259344; active = well fitted curve in the direction sought with a large enough effect; inconclusive = small, poorly fitted or top-dose-only effect, or another doubt; inactive = no such curve, though single readings can be large; an effect the other way counts as inactive or inconclusive; also: potency is read from the fitted curve at half-maximal effect)
# How it was run: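 Image-based: LipidTOX Red pit count/intensity per well and per cell; HepG2, 24 h compound at 37 C, PFA fixation, Hoechst counterstain.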
# [7] = biological target: Estrogen receptor beta (Homo sapiens) (UniProt Q92731); test: qHTS assay to identify small molecule agonists of the estrogen receptor beta (ER-beta) signaling pathway (AID 1259377; active = well fitted activation curve with a large enough effect in the signal ratio in the repeat runs, not every such curve was filed as active; inconclusive = weak or mixed curves, or effect the other way; the % refers to the signal ratio; also: potency is read from the fitted curve at half-maximal effect); details: ER-beta-UAS-bla HEK293T, beta-lactamase FRET ratio, 16 h; activation: at 92.4 µM (top of the series) unless noted
# How it was run: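 Ratiometric beta-lactamase FRET read-out came after 2 h substrate loading at room temperature. It followed 16 h compound treatment at 37C of GripTite HEK293T cells carrying a UAS-bla reporter, plated in 2% charcoal-stripped FBS medium.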
# [8] = biological target: Androgen receptor (Homo sapiens) (UniProt P10275); test: qHTS assay to identify small molecule antagonists of the androgen receptor (AR) signaling pathway using the MDA cell line in the presence of 0.5 nM R1881 (AID 1259243); also: potency is read from the fitted curve at half-maximal effect; nearly all actives have a fitted effect of over 50% in size
# How it was run: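 Cells: MDA-kb2 (MMTV-luc). Stimulus: 0.5 nM R1881. Time: 16 hr, 37C, no CO2. Detection: ONE-Glo luminescence after 30 min at RT.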
# [9] = biological target: Estrogen receptor (Homo sapiens) (UniProt P03372); test: qHTS assay to identify small molecule antagonists of the estrogen receptor alpha (ER-alpha) signaling pathway using the BG1 cell line in the presence of 0.1 nM 17-beta-estradiol (AID 1259244); also: nearly all actives have a fitted effect of over 50% in size; also: potency is read from the fitted curve at half-maximal effect
# How it was run: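 Seeding of stripped-serum-adapted VM7Luc4E2 cells, 24 h attachment, compound transfer, then 0.1 nM final 17beta-estradiol; after 22 h incubation, ONE-Glo reagent and luminescence reading.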
# [10] = qHTS assay to identify small molecule HDAC inhibitors - cell viability counter screen (AID 1259365)
# How it was run: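 CellTiter-Glo luminescence (30 min, room temperature) reported viability after a 2 h compound exposure at 37 C. Cells: wild-type HCT-116, 1,500 per well, seeded the night before.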
# [11] = A CellTox Green Cytotoxicity Assay to monitor cytotoxicity in HEK293 cells - 16 hour (AID 1224888); also: potency is read from the fitted curve at half-maximal effect; nearly all actives have a fitted effect of over 35% in size
# How it was run: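 Homogeneous no-lysis format: HEK293 cell suspension mixed with CellTox Green reagent, seeded, incubated 5 h at 37 C/5% CO2, then dosed by pintool with compound in DMSO.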
# [12] = qHTS assay to identify small molecule antagonists of the estrogen receptor alpha (ER-alpha) signaling pathway using the BG1 cell line in the presence of 0.1 nM 17-beta-estradiol - cell viability counter screen (AID 1259241); also: potency is read from the fitted curve at half-maximal effect; nearly all actives have a fitted effect of over 40% in size
# How it was run: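 Cytotoxicity counter-screen: live-cell protease activity measured by fluorescence (30 min reagent step) in the same wells. Cells were VM7Luc4E2 with endogenous ER-alpha and ERE-driven luciferase, treated 22 hr at 37C alongside 0.1 nM 17beta-estradiol final.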
# [13] = qHTS assay to identify small molecule antagonists of the androgen receptor (AR) signaling pathway using the MDA cell line in the presence of 0.5 nM R1881 - cell viability counter screen (AID 1259242); also: potency is read from the fitted curve at half-maximal effect; nearly all actives have a fitted effect of over 45% in size
# How it was run: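 Human breast carcinoma MDA-kb2 cells, cultured without CO2, receive compounds alongside 0.5 nM (final) R1881 agonist. After 16 hr at 37C, viability is taken as live-cell protease signal.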
# [14] = qHTS RealTime-Glo MT Cell Viability Assay in HepG2 cells - 0 hour (AID 1224889)
# How it was run: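 Tox21 10K library screened in qHTS format on HepG2 cells carrying RealTime-Glo reagents. Compounds were added after a 5 h preincubation, and the luminescent signal from continuous culture was measured repeatedly during 40 h treatment.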
# [15] = qHTS assay to identify small molecule agonists of the androgen receptor (AR) signaling pathway in the presence of an antagonist - cell viability counter screen (AID 1259379); also: nearly all actives have a fitted effect of over 25% in size; also: potency is read from the fitted curve at half-maximal effect
# How it was run: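 Counter screen for cell viability run in parallel with the AR agonist-mode luciferase assay. MDA-kb2 cells were co-treated with nilutamide (3.0uM final) and compounds, then incubated 16 hr at 37C, and CellTiter-Fluor fluorescence was measured.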
# [16] = activity, negative = inhibition: at 92.4 µM (top of the series) unless noted
# Tags tell the direction and shape of the fitted curve or compound fluorescence and quenching.
# UniProt Q92731, sequence (Q92731 whole entry, looked up): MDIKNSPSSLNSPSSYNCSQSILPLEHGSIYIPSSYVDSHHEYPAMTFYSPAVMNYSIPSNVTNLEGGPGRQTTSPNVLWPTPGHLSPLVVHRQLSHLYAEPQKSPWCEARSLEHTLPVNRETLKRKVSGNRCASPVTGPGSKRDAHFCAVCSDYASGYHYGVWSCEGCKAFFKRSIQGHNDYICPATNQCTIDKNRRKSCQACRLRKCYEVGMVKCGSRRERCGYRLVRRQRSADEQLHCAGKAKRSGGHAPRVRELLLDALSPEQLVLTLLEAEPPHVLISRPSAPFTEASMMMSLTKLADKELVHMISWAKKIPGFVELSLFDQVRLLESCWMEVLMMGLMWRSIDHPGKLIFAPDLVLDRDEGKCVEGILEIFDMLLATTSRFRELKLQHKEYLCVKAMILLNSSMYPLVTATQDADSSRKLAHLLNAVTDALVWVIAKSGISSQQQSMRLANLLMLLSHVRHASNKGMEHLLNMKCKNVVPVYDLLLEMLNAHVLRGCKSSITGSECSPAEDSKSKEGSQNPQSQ
# UniProt P03372, sequence (P03372 whole entry, looked up): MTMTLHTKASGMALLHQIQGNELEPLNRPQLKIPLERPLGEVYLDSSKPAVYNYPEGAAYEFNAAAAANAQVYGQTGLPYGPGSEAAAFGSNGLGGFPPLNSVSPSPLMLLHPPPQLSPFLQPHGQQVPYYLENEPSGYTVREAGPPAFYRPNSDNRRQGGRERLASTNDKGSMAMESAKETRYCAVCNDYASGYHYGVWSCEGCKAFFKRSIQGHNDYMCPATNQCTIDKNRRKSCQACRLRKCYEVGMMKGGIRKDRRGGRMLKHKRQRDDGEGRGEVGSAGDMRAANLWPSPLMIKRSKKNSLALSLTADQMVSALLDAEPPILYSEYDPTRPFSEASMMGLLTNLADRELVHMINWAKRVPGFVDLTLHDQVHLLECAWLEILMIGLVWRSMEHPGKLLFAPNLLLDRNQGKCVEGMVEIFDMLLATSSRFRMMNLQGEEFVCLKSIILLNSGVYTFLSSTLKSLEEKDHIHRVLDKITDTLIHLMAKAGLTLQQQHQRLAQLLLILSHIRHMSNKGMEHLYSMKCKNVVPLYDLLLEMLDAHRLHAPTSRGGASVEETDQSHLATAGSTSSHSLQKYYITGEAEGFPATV
# UniProt P10275, sequence (P10275 whole entry, looked up): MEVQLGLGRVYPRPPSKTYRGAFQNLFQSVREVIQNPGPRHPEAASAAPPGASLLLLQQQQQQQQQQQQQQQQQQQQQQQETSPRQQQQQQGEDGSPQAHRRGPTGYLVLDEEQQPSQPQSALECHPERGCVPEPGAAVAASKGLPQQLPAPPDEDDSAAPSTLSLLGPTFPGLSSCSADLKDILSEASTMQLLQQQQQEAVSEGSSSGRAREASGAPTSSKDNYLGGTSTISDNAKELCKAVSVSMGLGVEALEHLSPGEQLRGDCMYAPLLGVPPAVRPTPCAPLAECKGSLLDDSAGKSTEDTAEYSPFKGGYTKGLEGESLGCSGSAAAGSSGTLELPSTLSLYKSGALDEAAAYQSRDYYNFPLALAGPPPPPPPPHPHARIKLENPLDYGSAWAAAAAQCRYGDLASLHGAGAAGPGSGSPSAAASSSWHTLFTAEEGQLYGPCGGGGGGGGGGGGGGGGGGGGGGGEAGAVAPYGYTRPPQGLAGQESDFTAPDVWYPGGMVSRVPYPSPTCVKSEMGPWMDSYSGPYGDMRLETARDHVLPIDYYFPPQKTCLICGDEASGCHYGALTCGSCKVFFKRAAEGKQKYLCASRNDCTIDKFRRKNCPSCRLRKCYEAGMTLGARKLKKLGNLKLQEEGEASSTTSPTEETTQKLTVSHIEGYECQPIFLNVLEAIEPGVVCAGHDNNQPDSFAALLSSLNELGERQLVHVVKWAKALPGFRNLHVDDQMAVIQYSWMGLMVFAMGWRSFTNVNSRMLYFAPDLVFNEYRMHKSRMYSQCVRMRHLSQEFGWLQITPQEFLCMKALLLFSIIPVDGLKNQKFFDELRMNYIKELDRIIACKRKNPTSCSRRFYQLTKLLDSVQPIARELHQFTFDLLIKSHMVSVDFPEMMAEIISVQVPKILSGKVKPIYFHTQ
compound,measurement,setting,value
Cc1ccc(N)c(N)c1,Potency,[1],"inconclusive: 17.4 µM [rising, partial curve] and inconclusive: 34.7 µM [rising, partial curve]"
same,Potency,[2],"inconclusive: 68.8 µM [inhibitor, partial curve, poor fit] and inconclusive: 54.5 µM [inhibitor, partial curve, poor fit]"
same,Potency,[3],"inconclusive: 30.6 µM [cytotoxic, partial curve]"
same,Potency,[4],"inconclusive: 24.3 µM [inhibitor, partial curve]"
same,"activity, negative = inhibition",[5]; [16],inconclusive: -47.3% and inconclusive: -41.8%
CNC(=O)N(C)c1nnc(C(C)(C)C)s1,Potency,[1],inactive
same,Potency,[2],"inconclusive: 34.4 µM [inhibitor, partial curve]"
Cc1c(COC(=O)[C@@H]2[C@H](/C=C(\Cl)C(F)(F)F)C2(C)C)cccc1-c1ccccc1,Potency,[1],"inconclusive: 43.5 µM [cytotoxic, partial curve]"
same,Potency,[3],"inconclusive: 2.67 µM [rising, full curve]"
same,Potency,[4],"inconclusive: 0.15 µM [inhibitor, full curve, poor fit]"
same,"activity, negative = inhibition",[5]; [16],inconclusive: -37.9%
same,"activity, negative = inhibition",[5]; at 92.4 µM (top of the series),inactive: -3.56%
C[C@H]1O[C@@H](O[C@H]2[C@@H](O)C[C@H](O[C@H]3[C@@H](O)C[C@H](O[C@H]4CC[C@@]5(C)[C@H](CC[C@@H]6[C@@H]5CC[C@]5(C)[C@@H](C7=CC(=O)OC7)CC[C@]65O)C4)O[C@@H]3C)O[C@@H]2C)C[C@H](O)[C@@H]1O,Potency,[1],active: 34.9 nM and active: 84.9 nM
same,Potency,[6],active: 2 µM
same,Potency,[4],"inconclusive: 7.5 µM [inhibitor, single point]"
same,Potency,[7],"inconclusive: 218 nM [rising, full curve] and inconclusive: 237 nM [rising, full curve]"
same,Potency,[5]; [16],"inconclusive: 38.8 nM [activator, full curve, poor fit] and inconclusive: 33.5 nM [activator, full curve]"
CCOP(=S)(OCC)Oc1nc(Cl)c(Cl)cc1Cl,Potency,[1],active: 21.9 µM
same,Potency,[8],"inconclusive: 30.6 µM [inhibitor, partial curve]"
same,Potency,[9],"inconclusive: 68.7 µM [inhibitor, single point]"
same,Potency,[10],active: 48.7 µM
same,Potency,[3],active: 43.4 µM and inactive
same,Potency,[4],"inconclusive: 34.4 µM [inhibitor, partial curve]"
same,Potency,[5]; [16],"inconclusive: 24.4 µM [rising, full curve]"
[CH3][Hg][Cl],Potency,[1],active: 4.89 µM
same,Potency,[11],"inconclusive: 5.48 µM [activator, partial curve]"
same,Potency,[10],"inconclusive: 68.4 µM [cytotoxic, single point]"
same,Potency,[3],active: 4.84 µM
same,Potency,[4],active: 34.3 µM
same,Potency,[7],inconclusive: 24.3 µM [full curve]
same,Potency,[5]; [16],"inconclusive: 21.6 µM [rising, partial curve]"
CO/N=C(\C(=O)OC)c1ccccc1CO/N=C(\C)c1cccc(C(F)(F)F)c1,Potency,[1],"inconclusive: 21.9 µM [cytotoxic, partial curve]"
same,Potency,[12],"inconclusive: 6.86 µM [cytotoxic, full curve]"
same,Potency,[13],"inconclusive: 12.2 µM [cytotoxic, full curve]"
same,Potency,[4],"inconclusive: 0.306 µM [inhibitor, full curve]"
CSCCCN=C=S,Potency,[1],"inconclusive: 27.5 µM [cytotoxic, partial curve, poor fit]"
same,Potency,[14],inactive
same,Potency,[10],inconclusive: 61.1 µM
same,Potency,[15],"inconclusive: 68.6 µM [cytotoxic, single point]"
Clc1ccc(C(Cl)(Cl)Cl)c(Cl)c1,Potency,[1],"inconclusive: 49.3 µM [cytotoxic, single point]"
same,Potency,[11],"inconclusive: 55.3 µM [activator, single point]"
same,Potency,[15],inactive
C=CC(=O)[O][Sn]([CH2]CCC)([CH2]CCC)[CH2]CCC,Potency,[1],active: 0.436 µM
same,Potency,[11],active: 24.5 µM
same,Potency,[10],active: 19.3 µM
same,Potency,[3],active: 0.243 µM
same,Potency,[4],active: 0.486 µM
same,Potency,[7],"inconclusive: 24.3 µM [falling, partial curve, poor fit]"
same,Potency,[15],active: 4.33 µM
CC(C)=CC1C(C(=O)OCc2coc(Cc3ccccc3)c2)C1(C)C (configuration not stated),Potency,[1],"inconclusive: 61.8 µM [cytotoxic, single point]"
same,Potency,[13],"inconclusive: 0.0485 µM [cytotoxic, full curve]"
Cc1cc(SCc2sc(-c3ccc(C(F)(F)F)c(F)c3)nc2C)ccc1OCC(=O)O,Potency,[1],"inconclusive: 49 µM [cytotoxic, partial curve]"
same,Potency,[2],"inconclusive: 27.3 µM [inhibitor, partial curve]"
same,Potency,[3],active: 43.3 µM
same,Potency,[4],"inconclusive: 27.3 µM [inhibitor, single point]"
same,Potency,[7],"inconclusive: 12.2 µM [rising, partial curve]"
same,Potency,[5]; [16],"inconclusive: 17.2 µM [inhibitor, full curve]"
CC(=O)Nc1ccc2c(c1)Cc1ccccc1-2,Potency,[1],inactive
same,Potency,[9],inactive
same,Potency,[2],"inconclusive: 31.1 µM [inhibitor, partial curve]"
same,Potency,[7],"inconclusive: 31.1 µM [rising, partial curve]"
same,Potency,[5]; [16],"inconclusive: 39.2 µM [rising, partial curve]"
